Experimental data as given in publication PMC5700166.
The list shows a part of the results, in another mix than the full data. The list includes weakly bound sequences.

Key:
Assay in all cases: protein-binding microarray (PBM)
Conditions in all cases: PBM: ~300 nM protein, 6 mM HEPES pH 7.8, 80 mM KCl, 0.5 mM EDTA, 0.5 mM EGTA, 6% glycerol, 35 ng/ul poly-dIdC, 1% milk, 1 h, room temperature; Ap Aiptasia and Nv Nematostella (sea anemones) / Co Capsaspora / Aq Amphimedon (sponge) / Dm Drosophila / Hu human; RHD is the Rel homology domain; high values mean tight binding; most listed sequences are background and not binding sites; double strand, one strand shown
GST-Ap-NF-kB RHD = molecular target: T1, GST-Ap-NF-kB RHD (UniProt A0A913YAJ5)
T1 sequence: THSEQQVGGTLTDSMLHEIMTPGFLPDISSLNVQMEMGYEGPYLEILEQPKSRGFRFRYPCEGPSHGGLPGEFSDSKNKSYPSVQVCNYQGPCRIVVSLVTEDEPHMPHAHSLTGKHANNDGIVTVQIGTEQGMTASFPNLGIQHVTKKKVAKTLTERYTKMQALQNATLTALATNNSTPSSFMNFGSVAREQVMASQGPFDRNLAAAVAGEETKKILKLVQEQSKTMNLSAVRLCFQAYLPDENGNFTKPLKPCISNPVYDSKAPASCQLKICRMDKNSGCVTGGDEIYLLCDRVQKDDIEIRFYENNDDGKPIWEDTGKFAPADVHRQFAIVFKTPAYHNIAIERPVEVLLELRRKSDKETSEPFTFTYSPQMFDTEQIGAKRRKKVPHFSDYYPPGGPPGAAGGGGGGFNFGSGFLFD

[1] = molecular target: T2, GST-Nv-NF-kB (Cys allele) (UniProt E5G601)
T2 sequence: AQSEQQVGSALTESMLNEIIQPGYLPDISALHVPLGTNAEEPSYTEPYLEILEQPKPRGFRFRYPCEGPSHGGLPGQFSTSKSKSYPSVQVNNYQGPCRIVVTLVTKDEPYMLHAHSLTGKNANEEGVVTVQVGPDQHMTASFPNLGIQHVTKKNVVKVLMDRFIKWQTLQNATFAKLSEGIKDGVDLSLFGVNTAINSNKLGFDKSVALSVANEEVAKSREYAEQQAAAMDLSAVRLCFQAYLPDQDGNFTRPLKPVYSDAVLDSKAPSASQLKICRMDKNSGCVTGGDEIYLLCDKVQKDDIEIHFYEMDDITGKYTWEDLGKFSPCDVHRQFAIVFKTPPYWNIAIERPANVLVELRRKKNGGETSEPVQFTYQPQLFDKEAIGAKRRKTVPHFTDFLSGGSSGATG

GST-Co-NF-kB = molecular target: T3, GST-Co-NF-kB (UniProt F1ARL5)
T3 sequence: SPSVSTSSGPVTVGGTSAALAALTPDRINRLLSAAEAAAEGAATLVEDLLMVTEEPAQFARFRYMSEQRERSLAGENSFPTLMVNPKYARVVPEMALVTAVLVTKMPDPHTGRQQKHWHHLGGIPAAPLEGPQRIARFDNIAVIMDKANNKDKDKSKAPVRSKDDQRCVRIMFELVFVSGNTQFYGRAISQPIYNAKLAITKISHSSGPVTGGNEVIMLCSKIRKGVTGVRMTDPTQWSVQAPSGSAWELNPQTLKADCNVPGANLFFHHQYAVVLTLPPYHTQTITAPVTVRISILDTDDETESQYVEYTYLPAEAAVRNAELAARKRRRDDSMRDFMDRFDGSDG

GST-Dm-Relish = molecular target: T4, GST-Dm-Relish (UniProt Q94527)
T4 sequence: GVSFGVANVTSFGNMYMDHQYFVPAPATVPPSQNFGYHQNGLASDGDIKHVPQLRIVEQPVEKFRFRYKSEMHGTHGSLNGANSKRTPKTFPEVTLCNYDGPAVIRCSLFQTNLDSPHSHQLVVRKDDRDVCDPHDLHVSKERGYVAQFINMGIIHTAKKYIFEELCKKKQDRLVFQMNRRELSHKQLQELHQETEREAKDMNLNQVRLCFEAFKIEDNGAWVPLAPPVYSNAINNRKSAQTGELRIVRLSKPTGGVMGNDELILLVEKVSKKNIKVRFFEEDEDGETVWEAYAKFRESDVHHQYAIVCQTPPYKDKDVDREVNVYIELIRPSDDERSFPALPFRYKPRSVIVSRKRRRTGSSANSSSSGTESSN

GST-Aq-NF-kB = molecular target: T5, GST-Aq-NF-kB (UniProt A9Y5G7)
T5 sequence: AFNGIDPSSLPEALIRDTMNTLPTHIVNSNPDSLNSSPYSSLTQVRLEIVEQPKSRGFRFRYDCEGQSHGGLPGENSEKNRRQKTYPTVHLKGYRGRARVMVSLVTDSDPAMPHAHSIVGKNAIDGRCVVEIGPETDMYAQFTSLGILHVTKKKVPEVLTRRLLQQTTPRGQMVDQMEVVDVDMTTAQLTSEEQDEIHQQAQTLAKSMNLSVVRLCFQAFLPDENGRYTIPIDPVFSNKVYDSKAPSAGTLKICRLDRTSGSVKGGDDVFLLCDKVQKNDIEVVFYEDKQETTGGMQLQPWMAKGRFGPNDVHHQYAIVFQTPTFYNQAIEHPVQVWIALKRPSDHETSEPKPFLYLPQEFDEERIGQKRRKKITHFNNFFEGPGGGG

Sequence	binding signal (GST-Ap-NF-kB RHD) [z-score]	binding signal [1] [z-score]	binding signal (GST-Co-NF-kB) [z-score]	binding signal (GST-Dm-Relish) [z-score]	binding signal (GST-Aq-NF-kB) [z-score]
CCGATTAACATCATACTTGACTCTGATGTTAATCGGGTCTTGATTCGCTTGACGCTGCTG	-0.517	-0.104	-0.437	-0.674	-0.813
CCGATTAACATCAGGACGTTCCATGATGTTAATCGGGTCTTGATTCGCTTGACGCTGCTG	-0.303	-0.0881	-1.42	0.77	0.203
CCGATTAACATCAAAGGGAATTCTGATGTTAATCGGGTCTTGATTCGCTTGACGCTGCTG	4.72	7.1	2.97	4.04	5.65
CCGATTAACATCAAAATTCCTGATGATGTTAATCGGGTCTTGATTCGCTTGACGCTGCTG	0.0361	-0.16	0.485	0.546	0.666
CCGATTAACATCATTAGCGTTACTGATGTTAATCGGGTCTTGATTCGCTTGACGCTGCTG	-0.122	-0.194	-0.43	-0.459	-0.453
CCGATTAACATCATTCCACCAGGTGATGTTAATCGGGTCTTGATTCGCTTGACGCTGCTG	0.604	-0.557	0.492	0.778	0.389
CCGATTAACATCAGAAATTTGCCTGATGTTAATCGGGTCTTGATTCGCTTGACGCTGCTG	-0.281	-0.348	0.444	-0.0302	-0.016
CCGATTAACATCATTGGCGGATATGATGTTAATCGGGTCTTGATTCGCTTGACGCTGCTG	0.271	-0.177	0.27	-0.458	-0.165
CCGATTAACATCAATCAGACGCATGATGTTAATCGGGTCTTGATTCGCTTGACGCTGCTG	0.178	-1.19	-0.372	-0.808	-0.566
CCGATTAACATCAAGGAAGGAGTTGATGTTAATCGGGTCTTGATTCGCTTGACGCTGCTG	0.157	0.581	0.237	-0.274	-0.0897
CCGATTAACATCATGTAGGAACCTGATGTTAATCGGGTCTTGATTCGCTTGACGCTGCTG	-0.789	-0.69	-0.712	-0.547	-0.33
CCGATTAACATCAGCCACTCTGATGATGTTAATCGGGTCTTGATTCGCTTGACGCTGCTG	-0.156	-0.677	-0.155	-0.486	-0.22
CCGATTAACATCACCGCCACGCATGATGTTAATCGGGTCTTGATTCGCTTGACGCTGCTG	0.94	-0.51	0.066	0.956	0.327
